# Some of the results follow.
# B1: OGAA (protein)
# chain: MVQKESQATLEERESELSSNPAASAGASLEPPAAPAPGEDNPAGAGGAAVAGAAGGARRFLCGVVEGFYGRPWVMEQRKELFRRLQKWELNTYLYAPKDDYKHRMFWREMYSVEEAEQLMTLISAAREYEIEFIYAISPGLDITFSNPKEVSTLKRKLDQVSQFGCRSFALLFADIDHNMCAADKEVFSSFAHAQVSITNEIYQYLGEPETFLFCPTEYCGTFCYPNVSQSPYLRTVGEKLLPGIEVLWTGPKVVSKEIPVESIEEVSKIIKRAPVIWDNIHANDYDQKRLFLGPYKGRSTELIPRLKGVLTNPNCEFEANYVAIHTLATWYKSNMNGVRKDVVMTDSEDSTVSIQIKLENEGSDEDIETDVLYSPQMALKLALTEWLQEFGVPHQY
# Assays:
# Assay in all cases: glycan array binding signal (z-score within array); higher = stronger binding
# Conditions in all cases: glycan notation: IUPAC condensed, linker removed
# [1] = molecular target: GlcNAc(b1-3)Gal(b1-4)Glc
# Procedure, shortened: (§1)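 Columns mapping to the same glycan were averaged after glycan names were converted to IUPAC-condensed notation. The data come from 3228 arrays in the Consortium for Functional Glycomics database, limited to those with an available protein sequence. Binding is reported as a within-array Z-score averaged across arrays of one protein sequence and across linkers.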
# [2] = molecular target: GlcNAc(b1-3)Gal(b1-4)GlcNAc
# Procedure, shortened: as §1
# [3] = molecular target: GlcNAc(b1-3)Gal(b1-4)GlcNAc(b1-2)Man(a1-3)[GlcNAc(b1-3)Gal(b1-4)GlcNAc(b1-2)Man(a1-6)]Man(b1-4)GlcNAc(b1-4)GlcNAc
# Procedure, shortened: as §1
# [4] = molecular target: GlcNAc(b1-3)Gal(b1-4)GlcNAc(b1-2)Man(a1-3)[GlcNAc(b1-3)Gal(b1-4)GlcNAc(b1-2)Man(a1-6)]Man(b1-4)GlcNAc(b1-4)[Fuc(a1-6)]GlcNAc
# Procedure, shortened: as §1
# [5] = molecular target: GlcNAc(b1-3)Gal(b1-4)GlcNAc(b1-2)[GlcNAc(b1-3)Gal(b1-4)GlcNAc(b1-6)]Man(a1-6)[GlcNAc(b1-3)Gal(b1-4)GlcNAc(b1-2)Man(a1-3)]Man(b1-4)GlcNAc(b1-4)GlcNAc
# Procedure, shortened: as §1
# [6] = molecular target: GlcNAc(b1-3)Gal(b1-4)GlcNAc(b1-3)Gal(b1-4)GlcNAc
# Procedure, shortened: as §1
# [7] = molecular target: GlcNAc(b1-3)Gal(b1-4)GlcNAc(b1-3)Gal(b1-4)GlcNAc(b1-2)Man(a1-3)[GlcNAc(b1-3)Gal(b1-4)GlcNAc(b1-3)Gal(b1-4)GlcNAc(b1-2)Man(a1-6)]Man(b1-4)GlcNAc(b1-4)GlcNAc
# Procedure, shortened: as §1
# [8] = molecular target: GlcNAc(b1-3)Gal(b1-4)GlcNAc(b1-3)Gal(b1-4)GlcNAc(b1-2)Man(a1-3)[GlcNAc(b1-3)Gal(b1-4)GlcNAc(b1-3)Gal(b1-4)GlcNAc(b1-2)Man(a1-6)]Man(b1-4)GlcNAc(b1-4)[Fuc(a1-6)]GlcNAc
# Procedure, shortened: as §1
# [9] = molecular target: GlcNAc(b1-3)Gal(b1-4)GlcNAc(b1-3)Gal(b1-4)GlcNAc(b1-2)[GlcNAc(b1-3)Gal(b1-4)GlcNAc(b1-3)Gal(b1-4)GlcNAc(b1-6)]Man(a1-6)[GlcNAc(b1-3)Gal(b1-4)GlcNAc(b1-3)Gal(b1-4)GlcNAc(b1-2)Man(a1-3)]Man(b1-4)GlcNAc(b1-4)[Fuc(a1-6)]GlcNAc
# Procedure, shortened: as §1
# [10] = molecular target: GlcNAc(b1-3)Gal(b1-4)GlcNAc(b1-3)Gal(b1-4)GlcNAc(b1-3)Gal(b1-4)GlcNAc(b1-2)Man(a1-3)[GlcNAc(b1-3)Gal(b1-4)GlcNAc(b1-3)Gal(b1-4)GlcNAc(b1-3)Gal(b1-4)GlcNAc(b1-2)Man(a1-6)]Man(b1-4)GlcNAc(b1-4)GlcNAc
# Procedure, shortened: as §1
# [11] = molecular target: GlcNAc(b1-3)Gal(b1-4)GlcNAc(b1-3)Gal(b1-4)GlcNAc(b1-3)Gal(b1-4)GlcNAc(b1-2)Man(a1-3)[GlcNAc(b1-3)Gal(b1-4)GlcNAc(b1-3)Gal(b1-4)GlcNAc(b1-3)Gal(b1-4)GlcNAc(b1-2)Man(a1-6)]Man(b1-4)GlcNAc(b1-4)[Fuc(a1-6)]GlcNAc
# Procedure, shortened: as §1
# [12] = molecular target: GlcNAc(b1-3)Gal(b1-4)GlcNAc(b1-3)Gal(b1-4)GlcNAc(b1-3)Gal(b1-4)GlcNAc(b1-2)[GlcNAc(b1-3)Gal(b1-4)GlcNAc(b1-3)Gal(b1-4)GlcNAc(b1-3)Gal(b1-4)GlcNAc(b1-6)]Man(a1-6)[GlcNAc(b1-3)Gal(b1-4)GlcNAc(b1-3)Gal(b1-4)GlcNAc(b1-3)Gal(b1-4)GlcNAc(b1-2)Man(a1-3)]Man(b1-4)GlcNAc(b1-4)[Fuc(a1-6)]GlcNAc
# Procedure, shortened: as §1
# [13] = molecular target: GlcNAc(b1-3)Gal(b1-4)GlcNAc(b1-3)Gal(b1-4)GlcNAc(b1-3)Gal(b1-4)GlcNAc(b1-3)Gal(b1-4)GlcNAc(b1-2)Man(a1-3)[GlcNAc(b1-3)Gal(b1-4)GlcNAc(b1-3)Gal(b1-4)GlcNAc(b1-3)Gal(b1-4)GlcNAc(b1-3)Gal(b1-4)GlcNAc(b1-2)Man(a1-6)]Man(b1-4)GlcNAc(b1-4)GlcNAc
# Procedure, shortened: as §1
# [14] = molecular target: GlcNAc(b1-3)Gal(b1-4)GlcNAc(b1-3)Gal(b1-4)GlcNAc(b1-3)Gal(b1-4)GlcNAc(b1-3)Gal(b1-4)GlcNAc(b1-2)Man(a1-3)[GlcNAc(b1-3)Gal(b1-4)GlcNAc(b1-3)Gal(b1-4)GlcNAc(b1-3)Gal(b1-4)GlcNAc(b1-3)Gal(b1-4)GlcNAc(b1-2)Man(a1-6)]Man(b1-4)GlcNAc(b1-4)[Fuc(a1-6)]GlcNAc
# Procedure, shortened: as §1
# [15] = molecular target: GlcNAc(b1-3)Gal(b1-4)GlcNAc(b1-3)Gal(b1-4)GlcNAc(b1-3)Gal(b1-4)GlcNAc(b1-3)Gal(b1-4)GlcNAc(b1-2)[GlcNAc(b1-3)Gal(b1-4)GlcNAc(b1-3)Gal(b1-4)GlcNAc(b1-3)Gal(b1-4)GlcNAc(b1-3)Gal(b1-4)GlcNAc(b1-6)]Man(a1-6)[GlcNAc(b1-3)Gal(b1-4)GlcNAc(b1-3)Gal(b1-4)GlcNAc(b1-3)Gal(b1-4)GlcNAc(b1-3)Gal(b1-4)GlcNAc(b1-2)Man(a1-3)]Man(b1-4)GlcNAc(b1-4)[Fuc(a1-6)]GlcNAc
# Procedure, shortened: as §1
# [16] = molecular target: GlcNAc(b1-3)Gal(b1-4)GlcNAc(b1-3)Gal(b1-4)GlcNAc(b1-3)GalNAc
# Procedure, shortened: as §1
# [17] = molecular target: GlcNAc(b1-3)Gal(b1-4)GlcNAc(b1-3)GalNAc
# Procedure, shortened: as §1
# [18] = molecular target: GlcNAc(b1-3)Gal(b1-4)GlcNAc(b1-3)[GlcNAc(b1-3)Gal(b1-4)GlcNAc(b1-3)]GalNAc
# Procedure, shortened: as §1
# [19] = molecular target: GlcNAc(b1-3)Gal(b1-4)GlcNAc(b1-6)[Gal(b1-3)]GalNAc
# Procedure, shortened: as §1
# [20] = molecular target: GlcNAc(b1-3)Gal(b1-4)GlcNAc(b1-6)[GlcNAc(b1-3)Gal(b1-3)]GalNAc
# Procedure, shortened: as §1
# [21] = molecular target: GlcNAc(b1-3)Gal(b1-4)GlcNAc(b1-6)[GlcNAc(b1-3)]Gal(b1-4)GlcNAc
# Procedure, shortened: as §1
# [22] = molecular target: GlcNAc(b1-3)GalNAc
# Procedure, shortened: as §1
# [23] = molecular target: GlcNAc(b1-3)Man
# Procedure, shortened: as §1
# [24] = molecular target: GlcNAc(b1-3)[GlcNAc(b1-4)][GlcNAc(b1-6)]GlcNAc
# Procedure, shortened: as §1
# [25] = molecular target: GlcNAc(b1-3)[GlcNAc(b1-6)]Gal(b1-4)GlcNAc
# Procedure, shortened: as §1
# [26] = molecular target: GlcNAc(b1-3)[GlcNAc(b1-6)]GalNAc
# Procedure, shortened: as §1
# [27] = molecular target: GlcNAc(b1-4)Gal(b1-4)GlcNAc
# Procedure, shortened: as §1
# [28] = molecular target: GlcNAc(b1-4)GlcNAc
# Procedure, shortened: as §1
# [29] = molecular target: GlcNAc(b1-4)GlcNAc(b1-4)GlcNAc
# Procedure, shortened: as §1
# [30] = molecular target: GlcNAc(b1-4)GlcNAc(b1-4)GlcNAc(b1-4)GlcNAc(b1-4)GlcNAc
# Procedure, shortened: as §1
# [31] = molecular target: GlcNAc(b1-4)GlcNAc(b1-4)GlcNAc(b1-4)GlcNAc(b1-4)GlcNAc(b1-4)GlcNAc
# Procedure, shortened: as §1
# [32] = molecular target: GlcNAc(b1-4)[GlcNAc(b1-6)]GalNAc
# Procedure, shortened: as §1
# [33] = molecular target: GlcNAc(b1-6)Gal(b1-4)GlcNAc
# Procedure, shortened: as §1
# [34] = molecular target: GlcNAc(b1-6)GalNAc
# Procedure, shortened: as §1
# [35] = molecular target: GlcNAc6S(b1-3)Gal(b1-4)GlcNAc
# Procedure, shortened: as §1
# [36] = molecular target: Kdn(a2-3)Gal(b1-3)GalNAc
# Procedure, shortened: as §1
# [37] = molecular target: Kdn(a2-3)Gal(b1-3)GlcNAc
# Procedure, shortened: as §1
binder,measurement,setting,value
B1,glycan array binding signal (z-score),[1],-0.091
same,glycan array binding signal (z-score),[2],-0.079
same,glycan array binding signal (z-score),[3],-0.092
same,glycan array binding signal (z-score),[4],-0.029
same,glycan array binding signal (z-score),[5],0.013
same,glycan array binding signal (z-score),[6],-0.034
same,glycan array binding signal (z-score),[7],-0.009
same,glycan array binding signal (z-score),[8],-0.083
same,glycan array binding signal (z-score),[9],0.011
same,glycan array binding signal (z-score),[10],-0.1
same,glycan array binding signal (z-score),[11],-0.055
same,glycan array binding signal (z-score),[12],-0.048
same,glycan array binding signal (z-score),[13],-0.021
same,glycan array binding signal (z-score),[14],-0.105
same,glycan array binding signal (z-score),[15],-0.029
same,glycan array binding signal (z-score),[16],-0.06
same,glycan array binding signal (z-score),[17],-0.053
same,glycan array binding signal (z-score),[18],0.062
same,glycan array binding signal (z-score),[19],-0.119
same,glycan array binding signal (z-score),[20],-0.118
same,glycan array binding signal (z-score),[21],-0.093
same,glycan array binding signal (z-score),[22],-0.038
same,glycan array binding signal (z-score),[23],-0.115
same,glycan array binding signal (z-score),[24],-0.101
same,glycan array binding signal (z-score),[25],-0.11
same,glycan array binding signal (z-score),[26],-0.026
same,glycan array binding signal (z-score),[27],-0.129
same,glycan array binding signal (z-score),[28],-0.105
same,glycan array binding signal (z-score),[29],-0.101
same,glycan array binding signal (z-score),[30],-0.126
same,glycan array binding signal (z-score),[31],-0.102
same,glycan array binding signal (z-score),[32],-0.031
same,glycan array binding signal (z-score),[33],-0.095
same,glycan array binding signal (z-score),[34],-0.125
same,glycan array binding signal (z-score),[35],-0.111
same,glycan array binding signal (z-score),[36],-0.093
same,glycan array binding signal (z-score),[37],-0.06

# — the supplement of paper PMC8728848
